These results are taken from the supplement of paper PMC4604168 (melanoma cell lines).

The list shows a part of the results. Repeats are few or missing, and single values can be far off.

Some test systems named below: G361; IPC-298; IST-MEL1; LB2518-MEL; LOXIMVI; MEL-HO; MZ2-MEL; MeWo; RPMI7951; RVH-421.
Holding throughout (test): cell count relative to DMSO control; melanoma cells; higher = more viable cells
Common to all, as to settings: library dose: standard library concentration; 72 h
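Also: cells treated in 1,536-well plates, then fixed and DAPI-stained, with nuclei counted from automated high-throughput microscope images.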

In the case of `CS(=O)(=O)c1ccc(C(=O)Nc2ccc(Cl)c(-c3ccccn3)c2)c(Cl)c1` [vismodegib] + Cn1cncc1[C@@](N)(c1ccc(Cl)cc1)c1ccc2c(c1)c(-c1cccc(Cl)c1)cc(=O)n2C [tipifarnib] (first compound 5 µM, partner dose 0.05 µM), the cell count in the test on G361 was 82.9%; in the test with IPC-298, 108%; with IST-MEL1 it was 91.3%; with LB2518-MEL, 78%; in the test with LOXIMVI, 82.5%; with MEL-HO, 99%. Besides, the cell count amounted to 117% in the test on MZ2-MEL, 97.3% in the test with MeWo, 92.3% with RPMI7951 and 98.8% in the test with RVH-421.

Consider `CS(=O)(=O)c1ccc(C(=O)Nc2ccc(Cl)c(-c3ccccn3)c2)c(Cl)c1` [vismodegib] + NC1(c2ccc(-c3nc4ccn5c(=O)[nH]nc5c4cc3-c3ccccc3)cc2)CCC1 [MK2206] (first compound 5 µM, partner dose 2 µM), for which the cell count turned out to be 75.5% in the test with G361; 83.2% in the test with IPC-298; 89.3% with IST-MEL1; 85.8% in the test with LB2518-MEL; 94.7% with LOXIMVI; 75.3% in the test with MEL-HO. In addition, the cell count turned out to be 101% in the test on MZ2-MEL, 81.1% in the test with MeWo, 83.9% in the test on RPMI7951 and 92.2% in the test with RVH-421.

`CS(=O)(=O)c1ccc(C(=O)Nc2ccc(Cl)c(-c3ccccn3)c2)c(Cl)c1` [vismodegib] + CO[C@@H]1[C@H](N(C)C(=O)c2ccccc2)C[C@H]2O[C@]1(C)n1c3ccccc3c3c4c(c5c6ccccc6n2c5c31)C(=O)NC4 [Midostaurin] (first compound 5 µM, partner dose 0.4 µM): the cell count in the test with G361 came to 53.9%; in the test with IPC-298, 84.6%; in the test with IST-MEL1, 106%; in the test with LB2518-MEL, 79.9%; in the test on LOXIMVI it was 83.1%; in the test on MEL-HO, 75.3%. Also, the cell count with MZ2-MEL stood at 96.2%; in the test with MeWo, 73.8%; in the test on RPMI7951, 54.3%; with RVH-421 it was 88.3%.

Consider `CCCS(=O)(=O)Nc1ccc(F)c(C(=O)c2c[nH]c3ncc(Cl)cc23)c1F` + CN(C)S(=O)(=O)c1ccc2c(c1)/C(=C/c1cc3c([nH]1)CCCC3)C(=O)N2 [SU6656] (first compound 0.4 µM, partner dose 2 µM), for which the cell count is 50.9% with G361; 62.2% in the test with IPC-298; 63.8% in the test on IST-MEL1; 64.1% in the test on LB2518-MEL; 101% in the test with LOXIMVI; 79.5% in the test on MEL-HO. Also, the cell count was determined as 85.9% in the test with MZ2-MEL, 78.8% in the test on MeWo, 48.5% with RPMI7951 and 84.6% with RVH-421.

In the case of `NC1(c2ccc(-c3nc4ccn5c(=O)[nH]nc5c4cc3-c3ccccc3)cc2)CCC1` + O=C(O)C(=O)Nc1sc2c(c1C(=O)O)CCNC2 [TCS401] (first compound 2 µM, partner dose 8.33333 µM), the cell count worked out at 98.6% in the test on G361; 93.8% in the test on IPC-298; 95.6% in the test with IST-MEL1; 62.5% in the test with LB2518-MEL; 108% in the test on LOXIMVI; 79.5% with MEL-HO. Moreover, the cell count was 98.2% in the test on MZ2-MEL, 95.3% with MeWo, 77.1% with RPMI7951 and 80.8% in the test with RVH-421.

Regarding `CS(=O)(=O)c1ccc(C(=O)Nc2ccc(Cl)c(-c3ccccn3)c2)c(Cl)c1` [vismodegib] + Cn1c(Nc2ccc(C(F)(F)F)cc2)nc2cc(Oc3ccnc(-c4ncc(C(F)(F)F)[nH]4)c3)ccc21 [CHIR265] (first compound 5 µM, partner dose 0.4 µM), the cell count in the test with G361 was determined as 34.6%; with IPC-298, 40.3%; in the test on IST-MEL1, 97.9%; with LB2518-MEL, 41.8%; in the test with LOXIMVI, 83%; in the test with MEL-HO it was 73.4%. Further, the cell count in the test with MZ2-MEL was determined as 64.1%; in the test on MeWo, 77.6%; with RPMI7951, 54.5%; with RVH-421, 54.6%.

`CS(=O)(=O)c1ccc(C(=O)Nc2ccc(Cl)c(-c3ccccn3)c2)c(Cl)c1` [vismodegib] + N#Cc1c(O)c2c(-c3ccc(-c4ccccc4O)cc3)csc2[nH]c1=O [A769662] (first compound 5 µM, partner dose 10 µM): the cell count amounted to 88.3% in the test on G361; 90.7% in the test on IPC-298; 95.1% with IST-MEL1; 105% in the test with LB2518-MEL; 116% in the test on LOXIMVI; 94.1% in the test on MEL-HO. In addition, the cell count in the test with MZ2-MEL worked out at 97.7%; in the test on MeWo, 89.5%; in the test with RPMI7951, 100%; in the test on RVH-421, 101%.

In the case of `CCCS(=O)(=O)Nc1ccc(F)c(C(=O)c2c[nH]c3ncc(Cl)cc23)c1F` + Cn1c(Nc2ccc(C(F)(F)F)cc2)nc2cc(Oc3ccnc(-c4ncc(C(F)(F)F)[nH]4)c3)ccc21 [CHIR265] (first compound 0.4 µM, partner dose 0.4 µM), the cell count in the test on G361 was determined as 20.1%; in the test with IPC-298, 52.1%; with IST-MEL1, 90.3%; with LB2518-MEL, 40.4%; in the test with LOXIMVI, 74.3%; in the test on MEL-HO, 58.5%. Further, the cell count in the test with MZ2-MEL amounted to 68.9%; in the test on MeWo, 101%; in the test on RPMI7951 it was 50.5%; in the test on RVH-421 it was 36.5%.

As for `CCCS(=O)(=O)Nc1ccc(F)c(C(=O)c2c[nH]c3ncc(Cl)cc23)c1F` + CCc1ccc(CCOc2ccc(CC3SC(=O)NC3=O)cc2)nc1 [pioglitazone] (first compound 0.4 µM, partner dose 10 µM), the cell count in the test on G361 came to 62.8%; with IPC-298 it was 65.9%; in the test on IST-MEL1, 79.7%; in the test with LB2518-MEL it was 93.8%; in the test on LOXIMVI, 98.5%; in the test on MEL-HO it was 72.4%. The cell count in the test with MZ2-MEL stood at 82.1%; with MeWo, 85%; with RPMI7951, 93.1%; with RVH-421 it was 68.3%.

With `C=C(c1ccc(C(=O)O)cc1)c1cc2c(cc1C)C(C)(C)CCC2(C)C` [Bexarotene] + Cc1ccc(NC(=O)c2cccc(N(C)C)c2)cc1NC(=O)c1ccc(O)cc1 [ZM336372] (first compound 10 µM, partner dose 10 µM), the cell count is 80.8% with G361; 91.5% in the test on IPC-298; 77.7% with IST-MEL1; 101% in the test with LB2518-MEL; 81.7% in the test on LOXIMVI; 84.1% in the test on MEL-HO. Also, the cell count in the test on MZ2-MEL came out at 80.7%; with MeWo it was 77.8%; in the test with RPMI7951, 72%; with RVH-421, 84.2%.

Turning to `CS(=O)(=O)c1ccc(C(=O)Nc2ccc(Cl)c(-c3ccccn3)c2)c(Cl)c1` [vismodegib] + NC(=O)Nc1cc(-c2cccc(F)c2)sc1C(=O)N[C@H]1CCCNC1 [AZD7762] (first compound 5 µM, partner dose 0.1 µM), the cell count amounted to 91.1% in the test on G361; 102% with IPC-298; 153% in the test with IST-MEL1; 80.9% in the test with LB2518-MEL; 82.7% with LOXIMVI; 88.7% with MEL-HO. Besides, the cell count was determined as 113% with MZ2-MEL, 71.9% in the test on MeWo, 40.7% in the test on RPMI7951 and 165% in the test with RVH-421.
